Test results from the RNAGym collection of RNA variant scans (doi:10.7554/elife.90254).
Read counts are not given, so values of variants with three or more changes are uncertain.

B1: OR4K15 (parent)
chain: GUUAACGGUCAUAGGCCAUGGAAACUAGGAGCACCAUUUCGCUGCCAGUGAAGAAAUGAACAAAGAAAAUCUGGGCCAGGCAGGCAUCAAAAGAAAUAGUCUUGCGCUCAACCAGAAAGUCUGUAAUCAUUUUAAGGGUA

Variants of: B1
Assay: self-cleavage, relative activity (ratio to wild type); higher = more cleavage; in vitro, sequencing; the parent is a self-cleaving ribozyme
A4G A22G U72A U87C showed a self-cleavage of 0.12.
Work on U2C U103C A135U yielded a self-cleavage of 1.07.
For U3A A4G U97C, the self-cleavage was 1.5.
For U2C U70A A89G, the self-cleavage was 0.46.
For A5G A13C A111G A125G, the self-cleavage was 0.
Work on A5G A13G U37G A56G yielded a self-cleavage of 0.39.
A5G A11G A51U A62U gave a self-cleavage of 0.39.
U2G A5G A82G U122C U139A gave a self-cleavage of 0.48.
In the case of A5G A11G A92G U139C, the self-cleavage is reported as 0.69.
Variant U2C U37C A62G A66G has a self-cleavage of 1.08.
Work on A4G C42U A66G U130C yielded a self-cleavage of 0.54.
Work on U3C A47U A134G yielded a self-cleavage of 1.33.
Work on U3C A36G A64G A69G yielded a self-cleavage of 0.97.
Work on U3A A13G U72A A91G yielded a self-cleavage of 0.31.
In the case of A5C A67G A98G U122C, the self-cleavage is reported as 0.56.
With U3A U57C U132G the self-cleavage was 1.08.
With U2G A13G A33G the self-cleavage was 0.7.
Work on U3G U9C U26C U43A A67G U70A A92G U103C yielded a self-cleavage of 0.14.
In the case of U3G A64G A114U, the self-cleavage is reported as 0.12.
U3C A59G A82G showed a self-cleavage of 0.32.
U3A U39A U43C showed a self-cleavage of 1.09.
Variant A5G A18G A94G U131C has a self-cleavage of 2.07.
Work on U3C A11G A52G yielded a self-cleavage of 0.59.
Work on U2G U38G A54G A56G yielded a self-cleavage of 0.66.
Variant U3C A52G A110U G119A has a self-cleavage of 0.95.
For A4G U43A G58A A90G U108C G115U, the self-cleavage was 0.02.
U2C U122C U131C gave a self-cleavage of 0.91.
With A4G A18G U49C A69C A118G the self-cleavage was 0.96.
In the case of U3C A33G A67U A117G U124C, the self-cleavage is reported as 0.65.
For A4G G41U A47U A55C A60U A67U U102A, the self-cleavage was 0.87.
U2C U37C A67G A86G gave a self-cleavage of 1.23.
Work on U3C A51U U127C yielded a self-cleavage of 0.96.
A4G A56G U103C showed a self-cleavage of 0.8.
For U2C G14A A116U, the self-cleavage was 0.2.
In the case of A4G U72A A135G, the self-cleavage is reported as 0.8.
U2C U9C A63U A110G showed a self-cleavage of 0.23.
Work on U2C U12A A95G yielded a self-cleavage of 1.57.
A5C A33C A78G gave a self-cleavage of 0.59.
U3C A4C U72A A94G showed a self-cleavage of 0.52.
With U2C U49C A55G A95G the self-cleavage was 1.5.
In the case of U3G A64G G80A A140G, the self-cleavage is reported as 0.2.
With U3C U39A U57A U70C the self-cleavage was 0.19.
Variant A5C U100C U130C has a self-cleavage of 0.56.
Work on A4G U103A C128A yielded a self-cleavage of 0.54.
Variant A4G A90G A117G has a self-cleavage of 0.62.
For A5C U9A A91G A94G U122C, the self-cleavage was 0.82.
For U2C C10U C121U A129G, the self-cleavage was 1.32.
For A4G U9C A91G, the self-cleavage was 1.52.
In the case of U2C U12C A51G U72C A114G U120C, the self-cleavage is reported as 1.18.
U2C U102A A118G gave a self-cleavage of 0.21.
Work on U2G A5G U127C yielded a self-cleavage of 1.22.
In the case of U3A A56G U127C U130C, the self-cleavage is reported as 0.88.
With A4G A52U A92G the self-cleavage was 0.44.
For A4G A5G U9C A59U A66U A125G, the self-cleavage was 0.69.
With A4G A59G A82G U108C the self-cleavage was 0.05.
Work on A5G A11G U57C U102C yielded a self-cleavage of 1.21.
For A4G A78G A117G U131C, the self-cleavage was 0.59.
With U2C U103C U108A A135G the self-cleavage was 0.
Work on U3C A11U A67U A117U yielded a self-cleavage of 1.02.
In the case of U3A A63G A78G U132C, the self-cleavage is reported as 0.26.
Work on A5C U57C G93A A110G yielded a self-cleavage of 0.16.
Work on U2G U100C U133C yielded a self-cleavage of 0.79.
With U2C A110G U127C the self-cleavage was 0.09.
A4G U9G U57C gave a self-cleavage of 1.4.
U2C U9A U19C U57A A116G U131C showed a self-cleavage of 0.14.
Variant A4G U43C A54G A55G U103C has a self-cleavage of 0.43.
For A4G U37C A118G, the self-cleavage was 0.95.
For U2C C32U A56G, the self-cleavage was 0.71.
Variant U3C A5U U39C A116G has a self-cleavage of 0.26.
Work on U2C U9A G53A U130C yielded a self-cleavage of 0.5.
For A4G U39C A126G, the self-cleavage was 0.78.
U2C U9C A59G A60G A91G A96G A116G U122A gave a self-cleavage of 0.45.
Work on A4G A18C A90G A95G yielded a self-cleavage of 1.95.
For A4G A18U A92G, the self-cleavage was 1.47.
With A4U C25U A59G A69G U70C A134G the self-cleavage was 0.48.
Variant A5C A94U A140G has a self-cleavage of 1.35.
With U3C A11G A56G A78G the self-cleavage was 0.09.
For A4G G8A U19C A60G, the self-cleavage was 1.05.
For A5C C32A A51U A54U A82U, the self-cleavage was 0.55.
Work on U3C U19C U38C yielded a self-cleavage of 1.51.
For A4G A86G A116G, the self-cleavage was 0.55.
Variant U3A U43C A59G U108C C121A U124A has a self-cleavage of 0.
Work on U2C U43A U70C yielded a self-cleavage of 0.69.
U2C U3A A22G A59G A60G A91C A110G gave a self-cleavage of 0.09.
In the case of U2C U57C A117G, the self-cleavage is reported as 0.4.
Work on U3C A23G A33G yielded a self-cleavage of 0.64.
For U2C U39C U122C, the self-cleavage was 0.76.
Work on U2G A60G U87C U102A A117C yielded a self-cleavage of 0.14.
In the case of U3C A5G A140U, the self-cleavage is reported as 0.16.
A4G A67G A91U U130C showed a self-cleavage of 0.77.
In the case of U2G A52G A67G, the self-cleavage is reported as 1.26.
With U3C A60G A69G the self-cleavage was 1.15.
For A5C A82G A117G, the self-cleavage was 1.35.
With U3C A23G A59G A111U the self-cleavage was 0.26.
Work on U2C U72A A117G yielded a self-cleavage of 0.21.
Variant A4G A24G A95G U130C has a self-cleavage of 1.32.
U2C U38A A78U U100C C101G showed a self-cleavage of 0.03.
A4G A33G A67G A90G A96G A114U showed a self-cleavage of 0.04.
For U3G U70C A92U, the self-cleavage was 0.68.
Variant U3C A92G U108C A111G A116G U130G has a self-cleavage of 0.
In the case of U3C A22G A92G, the self-cleavage is reported as 0.79.
For A4G A5G U43C A125G, the self-cleavage was 0.5.
Variant A4G A95G U127C U130C has a self-cleavage of 1.11.
A4U A86G U130C showed a self-cleavage of 0.79.
For U2G G7A U38C U108C, the self-cleavage was 0.09.
Variant A5G A18G A78G U102C A110U U130C has a self-cleavage of 1.12.
Work on U2G U3C U26C A55C yielded a self-cleavage of 2.37.
Variant A4G C32U U38A C101U U108C C121U has a self-cleavage of 0.03.
In the case of A5G A13U A68U A117G, the self-cleavage is reported as 1.73.
U2C U39C A111G showed a self-cleavage of 0.06.
In the case of U3A A5G A62G A82U U127C, the self-cleavage is reported as 0.15.
In the case of U2C U3C A51G U102C A110U, the self-cleavage is reported as 1.23.
With U2C C6A C71A U102C U127C the self-cleavage was 0.48.
Work on U2C U19A C42U A51G A52U yielded a self-cleavage of 0.71.
With U2C U12C A126U the self-cleavage was 1.18.
In the case of A4G A67G A125G, the self-cleavage is reported as 0.45.
U3C A63G A66G A96G U97C A116G A126C showed a self-cleavage of 0.05.
Work on A4G A33G A56G U102C yielded a self-cleavage of 1.29.
In the case of A4G A22G A67G, the self-cleavage is reported as 0.85.
A4G A11G A30G gave a self-cleavage of 0.94.
U3C C25U U43A U108C A129G showed a self-cleavage of 0.02.
Work on U3C A94G U103C U120C U127A yielded a self-cleavage of 0.11.
For A4G U12C A13G A22G A51G, the self-cleavage was 0.68.
For A4G A78U U97C, the self-cleavage was 0.32.
A4G U43C A114G U122C gave a self-cleavage of 0.1.
Variant A4U A18U U49C A56G has a self-cleavage of 1.12.
For U3A A18G A33G U49C A78G A116G, the self-cleavage was 0.17.
U2C U102C A118G showed a self-cleavage of 1.14.
U3C A18C A82C A125C gave a self-cleavage of 0.23.
For A4G U37C A54G, the self-cleavage was 1.09.
For A5G A11G A47G A59G A118G, the self-cleavage was 0.38.
With U3C A23U A60G A129G U131C the self-cleavage was 0.33.
With A5C G7U A30U A92U A126C the self-cleavage was 0.91.
In the case of U3C U19C A52U A54G A92G A110G, the self-cleavage is reported as 0.2.
U3C U103C A126G showed a self-cleavage of 0.43.
For U3C A27G A60G U87A A94G, the self-cleavage was 1.11.
Work on A4G A11G A90G U122C yielded a self-cleavage of 0.76.
Work on U2C U102A A114U yielded a self-cleavage of 0.15.
With U2C U9A A24U C109U A117U the self-cleavage was 0.16.
Work on U3C A78U C85G A92U U120C U124C U131C yielded a self-cleavage of 0.01.
Work on U3A A52G A63G U102C yielded a self-cleavage of 0.61.
For A4U A68U U139C, the self-cleavage was 1.36.
With A4G U49A U103C U122C the self-cleavage was 0.5.
U3C A5G U12C C34U U49C A110U C112U U130A U131C showed a self-cleavage of 0.01.
Work on A4G A11G A36U A47G yielded a self-cleavage of 0.87.
With U2C U43A A47U A67G the self-cleavage was 1.1.
With U3C U9C U72A U108C the self-cleavage was 0.05.
U2C U38C A114U showed a self-cleavage of 0.17.
In the case of U2C U9A U38A A125G, the self-cleavage is reported as 0.49.
For U2C G14A A54G A111U U127G, the self-cleavage was 0.11.
Variant U3C A52U A118G has a self-cleavage of 1.06.
Variant A4G C32U A67U A90G G115U U132C has a self-cleavage of 0.16.
U3C A56G A60G G74A A110G gave a self-cleavage of 0.19.
A4G A89G A114G showed a self-cleavage of 0.62.
U3C U26C U87C A89U A96G U108A A117G gave a self-cleavage of 0.01.
For A4U A63G G75C U87C A134G, the self-cleavage was 0.15.
For A4G C42U U122A, the self-cleavage was 1.45.
A4G A22G U38C U49C A64G showed a self-cleavage of 1.05.
Work on U2C C81U A129G yielded a self-cleavage of 0.28.
U2C U97C A117G showed a self-cleavage of 1.14.
Work on U3C A22U A55C A118G yielded a self-cleavage of 0.91.
With U2C U102A A116U the self-cleavage was 0.17.
In the case of A4G A24G C121U, the self-cleavage is reported as 2.25.
Work on A5G A11G A23G G50A A90G yielded a self-cleavage of 0.84.
In the case of A4U A55G A67G A117G, the self-cleavage is reported as 1.65.
Variant A5C U87C U103C has a self-cleavage of 0.8.
Work on U2C C16A A55G U102C A129G yielded a self-cleavage of 0.44.
